According to the supplement of paper PMC8728848:
Some of the results follow.

Experiments:
Test in all cases: glycan array binding signal (z-score within array); higher = stronger binding
Settings in all cases: glycan notation: IUPAC condensed, linker removed
[1] = molecular target: Gal(b1-4)GlcNAc(b1-3)Gal(b1-4)GlcNAc(b1-3)Gal(b1-4)GlcNAc
In short: (§1)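 From the Consortium for Functional Glycomics database, 3228 arrays were curated, keeping only those whose protein sequence was available. Binding is given as a within-array Z-score averaged across arrays sharing a protein sequence and across linkers. Negative Z-scores can be read as non-binding.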

[2] = molecular target: Gal(b1-4)GlcNAc(b1-3)Gal(b1-4)GlcNAc(b1-3)Gal(b1-4)GlcNAc(b1-2)Man(a1-3)[Gal(b1-4)GlcNAc(b1-3)Gal(b1-4)GlcNAc(b1-3)Gal(b1-4)GlcNAc(b1-2)Man(a1-6)]Man(b1-4)GlcNAc(b1-4)GlcNAc
In short: as §1

[3] = molecular target: Gal(b1-4)GlcNAc(b1-3)Gal(b1-4)GlcNAc(b1-3)Gal(b1-4)GlcNAc(b1-2)Man(a1-3)[Gal(b1-4)GlcNAc(b1-3)Gal(b1-4)GlcNAc(b1-3)Gal(b1-4)GlcNAc(b1-2)Man(a1-6)]Man(b1-4)GlcNAc(b1-4)[Fuc(a1-6)]GlcNAc
In short: as §1

[4] = molecular target: Gal(b1-4)GlcNAc(b1-3)Gal(b1-4)GlcNAc(b1-3)Gal(b1-4)GlcNAc(b1-2)[Gal(b1-4)GlcNAc(b1-3)Gal(b1-4)GlcNAc(b1-3)Gal(b1-4)GlcNAc(b1-6)]Man(a1-6)[Gal(b1-4)GlcNAc(b1-3)Gal(b1-4)GlcNAc(b1-3)Gal(b1-4)GlcNAc(b1-2)Man(a1-3)]Man(b1-4)GlcNAc(b1-4)[Fuc(a1-6)]GlcNAc
In short: as §1

[5] = molecular target: Gal(b1-4)GlcNAc(b1-3)Gal(b1-4)GlcNAc(b1-3)Gal(b1-4)GlcNAc(b1-3)Gal(b1-4)GlcNAc(b1-2)Man(a1-3)[Gal(b1-4)GlcNAc(b1-3)Gal(b1-4)GlcNAc(b1-3)Gal(b1-4)GlcNAc(b1-3)Gal(b1-4)GlcNAc(b1-2)Man(a1-6)]Man(b1-4)GlcNAc(b1-4)GlcNAc
In short: as §1

[6] = molecular target: Gal(b1-4)GlcNAc(b1-3)Gal(b1-4)GlcNAc(b1-3)Gal(b1-4)GlcNAc(b1-3)Gal(b1-4)GlcNAc(b1-2)Man(a1-3)[Gal(b1-4)GlcNAc(b1-3)Gal(b1-4)GlcNAc(b1-3)Gal(b1-4)GlcNAc(b1-3)Gal(b1-4)GlcNAc(b1-2)Man(a1-6)]Man(b1-4)GlcNAc(b1-4)[Fuc(a1-6)]GlcNAc
In short: as §1

[7] = molecular target: Gal(b1-4)GlcNAc(b1-3)Gal(b1-4)GlcNAc(b1-3)Gal(b1-4)GlcNAc(b1-3)Gal(b1-4)GlcNAc(b1-2)[Gal(b1-4)GlcNAc(b1-3)Gal(b1-4)GlcNAc(b1-3)Gal(b1-4)GlcNAc(b1-3)Gal(b1-4)GlcNAc(b1-6)]Man(a1-6)[Gal(b1-4)GlcNAc(b1-3)Gal(b1-4)GlcNAc(b1-3)Gal(b1-4)GlcNAc(b1-3)Gal(b1-4)GlcNAc(b1-2)Man(a1-3)]Man(b1-4)GlcNAc(b1-4)[Fuc(a1-6)]GlcNAc
In short: as §1

[8] = molecular target: Gal(b1-4)GlcNAc(b1-3)Gal(b1-4)GlcNAc(b1-3)Gal(b1-4)GlcNAc(b1-3)Gal(b1-4)GlcNAc(b1-3)Gal(b1-4)GlcNAc(b1-2)Man(a1-3)[Gal(b1-4)GlcNAc(b1-3)Gal(b1-4)GlcNAc(b1-3)Gal(b1-4)GlcNAc(b1-3)Gal(b1-4)GlcNAc(b1-3)Gal(b1-4)GlcNAc(b1-2)Man(a1-6)]Man(b1-4)GlcNAc(b1-4)GlcNAc
In short: as §1

[9] = molecular target: Gal(b1-4)GlcNAc(b1-3)Gal(b1-4)GlcNAc(b1-3)Gal(b1-4)GlcNAc(b1-3)Gal(b1-4)GlcNAc(b1-3)Gal(b1-4)GlcNAc(b1-2)Man(a1-3)[Gal(b1-4)GlcNAc(b1-3)Gal(b1-4)GlcNAc(b1-3)Gal(b1-4)GlcNAc(b1-3)Gal(b1-4)GlcNAc(b1-3)Gal(b1-4)GlcNAc(b1-2)Man(a1-6)]Man(b1-4)GlcNAc(b1-4)[Fuc(a1-6)]GlcNAc
In short: as §1

[10] = molecular target: Gal(b1-4)GlcNAc(b1-3)Gal(b1-4)GlcNAc(b1-3)Gal(b1-4)GlcNAc(b1-3)Gal(b1-4)GlcNAc(b1-3)Gal(b1-4)GlcNAc(b1-2)[Gal(b1-4)GlcNAc(b1-3)Gal(b1-4)GlcNAc(b1-3)Gal(b1-4)GlcNAc(b1-3)Gal(b1-4)GlcNAc(b1-3)Gal(b1-4)GlcNAc(b1-6)]Man(a1-6)[Gal(b1-4)GlcNAc(b1-3)Gal(b1-4)GlcNAc(b1-3)Gal(b1-4)GlcNAc(b1-3)Gal(b1-4)GlcNAc(b1-3)Gal(b1-4)GlcNAc(b1-2)Man(a1-3)]Man(b1-4)GlcNAc(b1-4)[Fuc(a1-6)]GlcNAc
In short: as §1

[11] = molecular target: Gal(b1-4)GlcNAc(b1-3)Gal(b1-4)GlcNAc(b1-3)Gal(b1-4)GlcNAc(b1-3)Gal(b1-4)GlcNAc(b1-3)Gal(b1-4)GlcNAc(b1-3)Gal(b1-4)GlcNAc(b1-2)Man(a1-3)[Gal(b1-4)GlcNAc(b1-3)Gal(b1-4)GlcNAc(b1-3)Gal(b1-4)GlcNAc(b1-3)Gal(b1-4)GlcNAc(b1-3)Gal(b1-4)GlcNAc(b1-3)Gal(b1-4)GlcNAc(b1-2)Man(a1-6)]Man(b1-4)GlcNAc(b1-4)GlcNAc
In short: as §1

[12] = molecular target: Gal(b1-4)GlcNAc(b1-3)Gal(b1-4)GlcNAc(b1-3)GalNAc
In short: as §1

[13] = molecular target: Gal(b1-4)GlcNAc(b1-3)Gal(b1-4)GlcNAc(b1-3)[Gal(b1-4)GlcNAc(b1-3)Gal(b1-4)GlcNAc(b1-6)]GalNAc
In short: as §1

[14] = molecular target: Gal(b1-4)GlcNAc(b1-3)Gal(b1-4)GlcNAc(b1-6)[Gal(b1-3)]GalNAc
In short: as §1

[15] = molecular target: Gal(b1-4)GlcNAc(b1-3)Gal(b1-4)[Fuc(a1-3)GlcNAc(b1-6)]Gal(b1-4)Glc
In short: as §1

[16] = molecular target: Gal(b1-4)GlcNAc(b1-3)Gal(b1-4)[Fuc(a1-3)]GlcNAc(b1-3)Gal(b1-4)[Fuc(a1-3)]GlcNAc
In short: as §1

[17] = molecular target: Gal(b1-4)GlcNAc(b1-3)GalNAc
In short: as §1

[18] = molecular target: Gal(b1-4)GlcNAc(b1-3)[Fuc(a1-3)GlcNAc(b1-6)]Gal(b1-4)Glc
In short: as §1

[19] = molecular target: Gal(b1-4)GlcNAc(b1-3)[Gal(b1-4)GlcNAc(b1-6)]Gal(b1-4)GlcNAc
In short: as §1

[20] = molecular target: Gal(b1-4)GlcNAc(b1-3)[Gal(b1-4)GlcNAc(b1-6)]GalNAc
In short: as §1

[21] = molecular target: Gal(b1-4)GlcNAc(b1-3)[GlcNAc(b1-6)]Gal(b1-4)GlcNAc
In short: as §1

[22] = molecular target: Gal(b1-4)GlcNAc(b1-6)Gal(b1-4)GlcNAc
In short: as §1

[23] = molecular target: Gal(b1-4)GlcNAc(b1-6)GalNAc
In short: as §1

[24] = molecular target: Gal(b1-4)GlcNAc(b1-6)[Gal(b1-3)]GalNAc
In short: as §1

[25] = molecular target: Gal(b1-4)GlcNAc(b1-6)[Gal(b1-4)GlcNAc(b1-3)]GalNAc
In short: as §1

Gal(b1-4)GlcNAc6P = molecular target: Gal(b1-4)GlcNAc6P
In short: as §1

Gal(b1-6)Gal = molecular target: Gal(b1-6)Gal
In short: as §1

Gal3S(b1-3)GalNAc = molecular target: Gal3S(b1-3)GalNAc
In short: as §1

Gal3S(b1-3)GlcNAc = molecular target: Gal3S(b1-3)GlcNAc
In short: as §1

[26] = molecular target: Gal3S(b1-3)[Fuc(a1-4)]GlcNAc
In short: as §1

Gal3S(b1-4)Glc = molecular target: Gal3S(b1-4)Glc
In short: as §1

Gal3S(b1-4)Glc6S = molecular target: Gal3S(b1-4)Glc6S
In short: as §1

Gal3S(b1-4)GlcNAc = molecular target: Gal3S(b1-4)GlcNAc
In short: as §1

Gal3S(b1-4)GlcNAc6S = molecular target: Gal3S(b1-4)GlcNAc6S
In short: as §1

[27] = molecular target: Gal3S(b1-4)[Fuc(a1-3)]Glc
In short: as §1

[28] = molecular target: Gal3S(b1-4)[Fuc(a1-3)]Glc6S
In short: as §1

[29] = molecular target: Gal3S(b1-4)[Fuc(a1-3)]GlcNAc
In short: as §1

[30] = molecular target: Gal3S(b1-4)[Fuc(a1-3)]GlcNAc6S
In short: as §1

Gal3S4S(b1-4)GlcNAc = molecular target: Gal3S4S(b1-4)GlcNAc
In short: as §1

Gal3S6S(b1-4)GlcNAc = molecular target: Gal3S6S(b1-4)GlcNAc
In short: as §1

Gal3S6S(b1-4)GlcNAc6S = molecular target: Gal3S6S(b1-4)GlcNAc6S
In short: as §1

Gal4S(b1-4)GlcNAc = molecular target: Gal4S(b1-4)GlcNAc
In short: as §1

Gal4S6S(b1-4)GlcNAc = molecular target: Gal4S6S(b1-4)GlcNAc
In short: as §1

Gal6P(b1-4)GlcNAc = molecular target: Gal6P(b1-4)GlcNAc
In short: as §1

Gal6S(b1-3)GlcNAc = molecular target: Gal6S(b1-3)GlcNAc
In short: as §1

B1: rAAL-2 (Agrocybe aegerita) (protein)
chain: MTSNVITQDLPIPVASRGFADIVGFGLDGVVIGRNAVNLQPFLAVKNFAQNAGGWLTTKHVRLIADTTGTGKGDIVGFGNAGVYVSVNNGKNTFADPPKMVIANFGYDAGGWRVEKHLRYLADIRKIGRADIIGFGEKGVLVSRNNGGLNFGPATLVLKDFGYDAGGWRLDRHLRFLADVTGNGHLDIVGFGDKHVFISRNNGDGTFAPAKSVIDNFCIDAGGWKIGDHPRFVADLTGDGTADIIGCGKAGCWVALNNGGGVFGQVKLVINDFGTDKGWQAAKHPRFIADLTGNGRGDVVGFGNAGVYVALNNGDGTFQSAKLVLKDFGVQQGWTVSKHRRFVVDLTGDGCADIIGFGEKETLVSYNDGKGNFGPVKALTNDFSFSGGKWAPETTVCWMANLDSSRH
glycan array binding signal (z-score) [1]: -0.113 | glycan array binding signal (z-score) [2]: -0.084 | glycan array binding signal (z-score) [3]: -0.18 | glycan array binding signal (z-score) [4]: -0.234 | glycan array binding signal (z-score) [5]: -0.071 | glycan array binding signal (z-score) [6]: -0.088 | glycan array binding signal (z-score) [7]: -0.361 | glycan array binding signal (z-score) [8]: -0.319 | glycan array binding signal (z-score) [9]: -0.096 | glycan array binding signal (z-score) [10]: 0.032 | glycan array binding signal (z-score) [11]: -0.303 | glycan array binding signal (z-score) [12]: -0.073 | glycan array binding signal (z-score) [13]: 0.004 | glycan array binding signal (z-score) [14]: -0.017 | glycan array binding signal (z-score) [15]: -0.252 | glycan array binding signal (z-score) [16]: -0.168 | glycan array binding signal (z-score) [17]: -0.36 | glycan array binding signal (z-score) [18]: -0.377 | glycan array binding signal (z-score) [19]: -0.393 | glycan array binding signal (z-score) [20]: -0.248 | glycan array binding signal (z-score) [21]: 0.113 | glycan array binding signal (z-score) [22]: -0.213 | glycan array binding signal (z-score) [23]: -0.309 | glycan array binding signal (z-score) [24]: -0.193 | glycan array binding signal (z-score) [25]: -0.412 | glycan array binding signal (z-score) (Gal(b1-4)GlcNAc6P): -0.067 | glycan array binding signal (z-score) (Gal(b1-6)Gal): -0.299 | glycan array binding signal (z-score) (Gal3S(b1-3)GalNAc): -0.158 | glycan array binding signal (z-score) (Gal3S(b1-3)GlcNAc): -0.288 | glycan array binding signal (z-score) [26]: -0.239 | glycan array binding signal (z-score) (Gal3S(b1-4)Glc): -0.14 | glycan array binding signal (z-score) (Gal3S(b1-4)Glc6S): -0.288 | glycan array binding signal (z-score) (Gal3S(b1-4)GlcNAc): -0.213 | glycan array binding signal (z-score) (Gal3S(b1-4)GlcNAc6S): -0.11 | glycan array binding signal (z-score) [27]: -0.264 | glycan array binding signal (z-score) [28]: -0.303 | glycan array binding signal (z-score) [29]: -0.286 | glycan array binding signal (z-score) [30]: -0.567 | glycan array binding signal (z-score) (Gal3S4S(b1-4)GlcNAc): -0.379 | glycan array binding signal (z-score) (Gal3S6S(b1-4)GlcNAc): -0.303 | glycan array binding signal (z-score) (Gal3S6S(b1-4)GlcNAc6S): -0.286 | glycan array binding signal (z-score) (Gal4S(b1-4)GlcNAc): -0.445 | glycan array binding signal (z-score) (Gal4S6S(b1-4)GlcNAc): 0.033 | glycan array binding signal (z-score) (Gal6P(b1-4)GlcNAc): -0.19 | glycan array binding signal (z-score) (Gal6S(b1-3)GlcNAc): -0.369
